In the supplement of paper PMC10320760:
This is a noisy data set.

B1: Ydj1; a variant is named by its letters at X, in order (parent)
chain: MVKETKFYDILGVPVTATDVEIKKAYRKCALKYHPDKNPSEEAAEKFKEASAAYEILSDPEKRDIYDQFGEDGLSGAGGAGGFPGGGFGFGDDIFSQFFGAGGAQRPRGPQRGKDIKHEISASLEELYKGRTAKLALNKQILCKECEGRGGKKGAVKKCTSCNGQGIKFVTRQMGPMIQRFQTECDVCHGTGDIIDPKDRCKSCNGKKVENERKILEVHVEPGMKDGQRIVFKGEADQAPDVIPGDVVFIVSERPHKSFKRDGDDLVYEAEIDLLTAIAGGEFALEHVSGDWLKVGIVPGEVIAPGMRKVIEGKGMPIPKYGGYGNLIIKFTIKFPENHFTSEENLKKLEEILPPRIVPAIPKKATVDECVLADFDPAKYNRTRASRGGANYDSDEEEQGGEGVQCXXX

Variants of: B1
Experiment: enrichment factor, frequency at 37 °C / frequency at 25 °C (thermotolerance selection) (ratio); higher = more growth at 37 °C, higher likelihood of farnesylation
Conditions: with Saccharomyces cerevisiae ydj1Δ (yWS304); selective temperature 37 °C; reference temperature 25 °C

Row | Variant | enrichment factor
1 | WPM | 1.16
2 | YPM | 2.44
3 | DPN | 0.32
4 | EPN | 1.19
5 | FPN | 1.79
6 | GPN | 1.05
7 | APN | 1.82
8 | HPN | 1.65
9 | IPN | 1.62
10 | KPN | 1.23
11 | LPN | 1.86
12 | MPN | 1.64
13 | NPN | 1.47
14 | PPN | 1.49
15 | QPN | 2.09
16 | RPN | 1.51
17 | SPN | 2.02
18 | CPN | 2.08
19 | TPN | 1.25
20 | VPN | 2.34
21 | WPN | 1.47
22 | YPN | 1.49
23 | DPP | 0.203
24 | EPP | 0.305

Row | Variant | enrichment factor
25 | FPP | 0.918
26 | GPP | 0.109
27 | APP | 0.164
28 | HPP | 0.236
29 | IPP | 0.258
30 | KPP | 0.158
31 | LPP | 0.158
32 | MPP | 0.22
33 | NPP | 0.254
34 | PPP | 0.178
35 | QPP | 0.255
36 | RPP | 0.158
37 | SPP | 0.158
38 | CPP | 0.137
39 | TPP | 0.188
40 | VPP | 0.17
41 | WPP | 1.74
42 | YPP | 0.302
43 | DPQ | 1.75
44 | EPQ | 1.98
45 | FPQ | 2.22
46 | GPQ | 1.75
47 | APQ | 1.8
48 | HPQ | 1.91

Row | Variant | enrichment factor
49 | IPQ | 1.5
50 | KPQ | 2.31
51 | LPQ | 1.97
52 | MPQ | 1.51
53 | NPQ | 1.68
54 | PPQ | 1.72
55 | QPQ | 1.7
56 | RPQ | 1.29
57 | SPQ | 1.91
58 | CPQ | 1.72
59 | TPQ | 2.17
60 | VPQ | 1.77
61 | WPQ | 1.33
62 | YPQ | 2.53
63 | DPR | 0.177
64 | EPR | 0.211
65 | FPR | 0.127
66 | GPR | 0.138
67 | APR | 0.104
68 | HPR | 0.169
69 | IPR | 0.0943
70 | KPR | 0.0652
71 | LPR | 0.295
72 | MPR | 0.151

Row | Variant | enrichment factor
73 | NPR | 0.187
74 | PPR | 0.202
75 | QPR | 0.144
76 | RPR | 0.199
77 | SPR | 0.12
78 | CPR | 0.134
79 | TPR | 0.155
80 | VPR | 0.174
81 | WPR | 0.257
82 | YPR | 0.142
83 | DPS | 1.79
84 | EPS | 2.12
85 | FPS | 1.76
86 | GPS | 2.02
87 | APS | 2.06
88 | HPS | 1.67
89 | IPS | 1.99
90 | KPS | 1.61
91 | LPS | 2.54
92 | MPS | 1.47
93 | NPS | 2.06
94 | PPS | 1.74
95 | QPS | 1.83
96 | RPS | 1.71

Row | Variant | enrichment factor
97 | SPS | 1.85
98 | CPS | 1.45
99 | TPS | 2.78
100 | VPS | 2.01
101 | WPS | 0.82
102 | YPS | 2.23
103 | DPT | 0.385
104 | EPT | 1.22
105 | FPT | 2.11
106 | GPT | 1.53
107 | APT | 2.66
108 | HPT | 2.22
109 | IPT | 2.63
110 | KPT | 1.44
111 | LPT | 2.23
112 | MPT | 1.9
113 | NPT | 1.76
114 | PPT | 1.61
115 | QPT | 1.99
116 | RPT | 1.45
117 | SPT | 2.08
118 | CPT | 1.54
119 | TPT | 1.84
120 | VPT | 2.24

Row | Variant | enrichment factor
121 | WPT | 1.82
122 | YPT | 2.96
123 | DPV | 0.919
124 | EPV | 1.54
125 | FPV | 1.96
126 | GPV | 1.84
127 | APV | 1.73
128 | HPV | 2.33
129 | IPV | 1.51
130 | KPV | 1.38
131 | LPV | 1.81
132 | MPV | 2.55
133 | NPV | 1.53
134 | PPV | 1.6
135 | QPV | 2.48
136 | RPV | 1.84
137 | SPV | 1.37
138 | CPV | 1.58
139 | TPV | 2.52
140 | VPV | 3.68
141 | WPV | 0.988
142 | YPV | 3.14
143 | DPW | 0.288
144 | EPW | 1.11

Row | Variant | enrichment factor
145 | FPW | 1.16
146 | GPW | 0.806
147 | APW | 1.36
148 | HPW | 1.22
149 | IPW | 1.02
150 | KPW | 1.17
151 | LPW | 1.16
152 | MPW | 1.1
153 | NPW | 1.51
154 | PPW | 1.06
155 | QPW | 2.07
156 | RPW | 0.724
157 | SPW | 1.72
158 | CPW | 0.761
159 | TPW | 1.17
160 | VPW | 0.945
161 | WPW | 1.66
162 | YPW | 1.16
163 | DPY | 0.543
164 | EPY | 1.44
165 | FPY | 1.77
166 | GPY | 1.1
167 | APY | 2.16
168 | HPY | 1.81

Row | Variant | enrichment factor
169 | IPY | 2.45
170 | KPY | 1.68
171 | LPY | 2.04
172 | MPY | 1.83
173 | NPY | 1.93
174 | PPY | 1.37
175 | QPY | 2.29
176 | RPY | 1.92
177 | SPY | 2.02
178 | CPY | 1.49
179 | TPY | 1.97
180 | VPY | 2.55
181 | WPY | 1
182 | YPY | 1.73
183 | DQA | 0.574
184 | EQA | 1.33
185 | FQA | 1.5
186 | GQA | 1.83
187 | AQA | 1.38
188 | HQA | 1.74
189 | IQA | 1.49
190 | KQA | 1.43
191 | LQA | 1.46
192 | MQA | 1.6

Row | Variant | enrichment factor
193 | NQA | 1.41
194 | PQA | 1.68
195 | QQA | 1.91
196 | RQA | 1.55
197 | SQA | 1.49
198 | CQA | 2.99
199 | TQA | 1.89
200 | VQA | 1.84
201 | WQA | 2.12
202 | YQA | 2.98
203 | DQC | 1.15
204 | EQC | 1.81
205 | FQC | 1.51
206 | GQC | 1.56
207 | AQC | 1.77
208 | HQC | 2.93
209 | IQC | 1.93
210 | KQC | 1.86
211 | LQC | 0.886
212 | MQC | 1.53
213 | NQC | 1.69
214 | PQC | 1.71
215 | QQC | 2.65
216 | RQC | 1.63

Row | Variant | enrichment factor
217 | SQC | 1.67
218 | CQC | 0.753
219 | TQC | 1.86
220 | VQC | 3.31
221 | WQC | 0.698
222 | YQC | 3.98
223 | DQD | 0.0836
224 | EQD | 0.225
225 | FQD | 0.434
226 | GQD | 0.17
227 | AQD | 1.75
228 | HQD | 0.909
229 | IQD | 1.28
230 | KQD | 1.54
231 | LQD | 1.31
232 | MQD | 0.65
233 | NQD | 0.637
234 | PQD | 1.2
235 | QQD | 0.798
236 | RQD | 1.69
237 | SQD | 0.893
238 | CQD | 1.12
239 | TQD | 1.42
240 | VQD | 1.43

Row | Variant | enrichment factor
241 | WQD | 0.746
242 | YQD | 0.494
243 | DQE | 0.139
244 | EQE | 0.239
245 | FQE | 0.306
246 | GQE | 0.192
247 | AQE | 1.59
248 | HQE | 0.86
249 | IQE | 1.32
250 | KQE | 1.22
251 | LQE | 1.47
252 | MQE | 0.924
253 | NQE | 0.364
254 | PQE | 1.44
255 | QQE | 0.697
256 | RQE | 1.3
257 | SQE | 0.936
258 | CQE | 1.61
259 | TQE | 1.26
260 | VQE | 1.3
261 | WQE | 1.35
262 | YQE | 0.261
263 | DQF | 1.35
264 | EQF | 1.43

Row | Variant | enrichment factor
265 | FQF | 1.43
266 | GQF | 2.02
267 | AQF | 1.43
268 | HQF | 2.22
269 | IQF | 2.34
270 | KQF | 1.67
271 | LQF | 1.79
272 | MQF | 1.94
273 | NQF | 1.65
274 | PQF | 1.34
275 | QQF | 2.86
276 | RQF | 2.78
277 | SQF | 1.9
278 | CQF | 0.558
279 | TQF | 2.28
280 | VQF | 3.78
281 | WQF | 1.64
282 | YQF | 2.48
283 | DQG | 0.163
284 | EQG | 0.781
285 | FQG | 1.5
286 | GQG | 1.11
287 | HQG | 1.5
288 | AQG | 1.26

Row | Variant | enrichment factor
289 | IQG | 1.39
290 | KQG | 1.67
291 | LQG | 1.22
292 | MQG | 2.32
293 | NQG | 1.57
294 | PQG | 1.73
295 | QQG | 1.61
296 | RQG | 1.45
297 | SQG | 1.61
298 | TQG | 1.57
299 | CQG | 1.46
300 | VQG | 1.61
301 | WQG | 1.68
302 | YQG | 1.67
303 | DQH | 0.259
304 | EQH | 0.989
305 | FQH | 1.61
306 | GQH | 0.457
307 | HQH | 1.85
308 | AQH | 1.41
309 | IQH | 1.36
310 | KQH | 1.55
311 | LQH | 1.46
312 | MQH | 1.78

Row | Variant | enrichment factor
313 | NQH | 1.38
314 | PQH | 1.55
315 | QQH | 2
316 | RQH | 1.54
317 | SQH | 1.99
318 | TQH | 1.76
319 | CQH | 1.18
320 | VQH | 2.3
321 | WQH | 1.48
322 | YQH | 1.51
323 | DQI | 0.2
324 | EQI | 1.46
325 | FQI | 1.61
326 | GQI | 0.868
327 | HQI | 1.84
328 | AQI | 1.62
329 | IQI | 2.19
330 | KQI | 1.27
331 | LQI | 1.9
332 | MQI | 1.85
333 | NQI | 1.82
334 | PQI | 1.3
